Data on 60 compounds can be found in PubChem BioAssay AID485344 (National Center for Advancing Translational Sciences (NCATS), 2010).

About 6,900 (2%) of roughly 340,000 compounds were called active. Cut-off read from the data, not from the text of the source: active = inhibition above about 30%; inactive = below that, where a call was filed. The list shows a part of the results, in another mix than the full data. The source gives no active or inactive call for entries shown without one.

Chain of UniProt P14416 (P14416 whole entry, looked up): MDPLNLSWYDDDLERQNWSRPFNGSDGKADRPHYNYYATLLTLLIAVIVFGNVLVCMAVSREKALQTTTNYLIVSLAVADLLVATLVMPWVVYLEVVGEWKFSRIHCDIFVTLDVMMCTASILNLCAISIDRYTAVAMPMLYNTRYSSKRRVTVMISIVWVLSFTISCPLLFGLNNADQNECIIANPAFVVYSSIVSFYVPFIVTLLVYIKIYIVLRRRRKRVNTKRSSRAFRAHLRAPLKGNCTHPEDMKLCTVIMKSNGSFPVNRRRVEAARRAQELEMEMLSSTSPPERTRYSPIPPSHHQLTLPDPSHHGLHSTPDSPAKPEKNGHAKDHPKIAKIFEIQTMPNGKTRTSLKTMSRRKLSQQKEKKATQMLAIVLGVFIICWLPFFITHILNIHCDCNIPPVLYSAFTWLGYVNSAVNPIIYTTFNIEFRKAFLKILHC

The assay has as its target D(2) dopamine receptor (Homo sapiens) (UniProt P14416). The experiment in a line: HTS Assay for Allosteric Antagonists of the Human D2 Dopamine Receptor: Primary Screen for Antagonists. Note: 0% is about no effect. The following applies: HEK293 TREx D2 cells, calcium flux, dopamine EC80; at 10 µM; stronger effect = higher value. The gist of the method:
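HEK293 T-REx D2 cells, tet-induced, calcium dye no-wash. Cpd pintool add, 180 s kinetic, then EC80 DA, 180 s kinetic. Ca flux read.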
(In general: Calcium flux is commonly read through the fluorescence of an indicator in the cells.)
In general, inhibition refers to the drop in the measured response relative to a control, in per cent. In the case of `CCOc1cc2[nH]c(=O)n(Cc3ccc(C(=O)N4CCN(c5ccccc5)CC4)cc3)c(=O)c2cc1OCC`, the inhibition was 6.03%. Turning to `COc1cc2c(=O)n(Cc3ccco3)c(=O)n(CC(=O)Nc3ccc(F)cc3)c2cc1OC`, the inhibition was -19.3%. For `CSc1ncc(Cl)c(C(=O)Nc2cc(C(F)(F)F)ccc2Cl)n1`, the inhibition was -1.99%. Consider `Cc1nc(-c2ccc(Cl)cc2)sc1CCNC(=O)C(=O)Nc1ccc2c(c1)OCCO2`, for which the inhibition is -23.2%. For `O=C(O)c1ccc(NCc2nc3ccccc3n2CCOc2ccccc2Cl)cc1`, the inhibition was -15.4%. The same measure for `O=C(CSc1nc(=O)n(Cc2cccnc2)c2c1CCC2)Nc1cccc(Cl)c1`: -10.4%. Consider `CCc1cc(C(=O)OC)c(NC(=O)CC2SC(=NC)N(C)C2=O)s1` (stereo not given), for which the inhibition was active: 63.4%. On to `COCCn1c(=O)[nH]c2cc(C(=O)N3CCN(c4ccc(Cl)cc4)CC3)ccc2c1=O`, for which the inhibition is -4.84%. As for `CN(c1ccccc1C(=O)Nc1cccc(Cl)c1Cl)S(C)(=O)=O`, the inhibition was active: 53.3%. Turning to `Cc1ccc(CN2CCC(CNC(=O)c3cnn(-c4ccccc4)c3C3CCN(C(=O)OC(C)(C)C)CC3)CC2)cc1`, the inhibition turned out to be 0.611%. With `COc1ccc(NC(=O)c2cc(C(C)=O)n3ccccc23)cc1`, the inhibition worked out at 1.07%. With `COc1ccc(NC(=O)c2oc3ccc(S(=O)(=O)N4CCCCC4)cc3c2C)cc1Cl`, the inhibition was 15.6%. As for `CN1CCN(c2nc(-c3ccccc3)cc(C(F)(F)F)n2)CC1`, the inhibition was active: 75.4%. Under `COc1ccccc1NC(=O)CSc1nnc(-c2nonc2NC(C)=O)n1-c1ccccc1` stands 13%. The same measure for `CCc1ccc(NC(=O)Cn2c(=O)n(Cc3nc(C)no3)c(=O)c3cc4c(cc32)OCO4)cc1`: 0.208%; for `Cc1ccc(CNc2nc3c(S(=O)(=O)c4ccc(C)c(C)c4)nnn3c3ccc(Cl)cc23)cc1`: 6.03%; for `O=C(CN1CCN(c2ccc(Cl)cc2)CC1)Nc1ccc(Cl)c(C(F)(F)F)c1`: 13.6%. Regarding `Cc1ccc(CSc2oc(-c3ccco3)nc2S(=O)(=O)c2ccc(Br)cc2)cc1`, the inhibition is -16.6%. The same measure for `Cc1ccc(CNC(=O)CCn2ccc3cc(S(=O)(=O)N4CCCC4)ccc32)cc1`: 4.35%. As to `Cc1ccccc1-n1ncc(C(C)NC(=O)c2ccccc2)c1C` (stereo not given), the inhibition is active: 36.3%. The same measure for `Cc1ccc(C)c(N2CCN(C(=O)c3cc4cc5ccc(C)cc5nc4s3)CC2)c1`: 8.99%. Take `CCOCCCNC(=O)c1cc2c(=O)n3ccccc3nc2s1`: the inhibition was -13.8%. Consider `COc1cc(C(=O)NC2CCN(Cc3ccccc3)CC2)cc(Cl)c1OC`, for which the inhibition is active: 88.9%.

`O=C(/C=C\c1ccc2c(c1)OCO2)NC1CC(=O)N(c2ccc(F)cc2)C1` (stereo not given): the inhibition is -5.22%. Regarding `CCOC(=O)c1ccc(NC(=O)CCc2c(C)n(CC)c3cc(-c4ccccc4OC)nn3c2=O)cc1`, the inhibition was -8.62%.

On to `CCc1cccc(-n2c(=O)c3cccnc3n2CC(=O)NCc2ccccc2Cl)c1`, for which the inhibition was determined as 2.34%. On to `CCOC(=O)c1[nH]c(C)c(CCC(=O)NCc2ccc(C)cc2)c1C`, for which the inhibition is -5.2%. `COc1ccccc1Nc1nn2c(=O)c3ccc(C(=O)Nc4ccc(F)cc4)cc3nc2s1`: the inhibition is 12.8%. The same measure for `NC(=O)c1cc(S(=O)(=O)NCc2ccc(Br)cc2)cs1`: 10.2%.

On to `CCOc1ccc2oc(=O)cc(CN3CCN(C(=O)c4cccc(F)c4)CC3)c2c1`, for which the inhibition stood at 1.4%.

For `CCCN(CCC)CCNC(=O)Cn1ncc2c([nH]c3ccc(C)cc32)c1=O`, the inhibition stood at 4.67%.

Turning to `CC(NC(=O)C1CCN(C(=O)N2CCOc3ccc(Cl)cc32)CC1)c1ccccc1` (stereo not given), the inhibition is 0.155%. Under `COc1ccc(N2CCN(C(=O)c3nn(C)c4c3CS(=O)(=O)c3ccccc3-4)CC2)cc1` stands -5.67%; under `COc1ccc(-c2nc3c(c(SCc4cc(C)ccc4C)n2)Cc2c(CO)cnc(C)c2O3)cc1`, -6.43%; under `COc1ccc(CCNC(=O)CS(=O)Cc2nc(-c3ccc(C)cc3)oc2C)cc1OC` (stereo not given), 20%.

Consider `O=C(CCSCc1ccc(Cl)cc1)N1CCN(c2ccccc2F)CC1`, for which the inhibition worked out at 3.7%. Under `CCN(c1ccccc1)S(=O)(=O)c1ccc(NC(=O)c2cc(=O)c3ccc(C)c(C)c3o2)cc1` stands 3.33%. Under `Cc1ccc2c(CC(=O)Nc3c(C(=O)c4ccc(F)cc4)oc4ccccc34)coc2c1` stands -2.77%; under `Cc1nc2c(c(C)nn2-c2ccccc2)c(C)c1CCC(=O)Nc1ccc(F)cc1`, -12%; under `COc1cc(Nc2nc(SCc3cccc(Cl)c3)nc3ccccc23)cc(OC)c1`, 0.481%. Under `COc1cccc2c1[C@@H]1CN(CCCCn3c(=O)[nH]c4c(sc5ncc(-c6ccccc6)nc54)c3=O)C[C@@H]1CO2` stands active: 55.8%; under `Fc1ccc(Nc2c3c(nc4nncn24)CCC3)cc1`, -8.56%; under `Cc1cc(C)n(-c2nnc(Nc3ccc(C(C)C)cc3)c3ccccc23)n1`, 8.86%. For `COc1ccc(CNCc2ccc3c(c2)n(C)c(=O)n3C)cc1`, the inhibition is -1.61%. Under `COc1cccc(C(=O)NC(=O)Nc2ccc(-n3nc(C(F)(F)F)cc3C(F)(F)F)cc2)c1` stands -0.699%; under `CC(=O)c1ccc(NC(=O)C2=CC(c3cccs3)=NS(=O)(=O)N2C)cc1`, -2.48%; under `O=C(CCNS(=O)(=O)c1cccc2nonc12)NC1CCCCC1`, active: 30.5%. As for `O=C(COCc1cc(-c2cccs2)on1)NCc1ccccc1Cl`, the inhibition was found to be 3.4%. Take `COc1cc(C2c3c(oc4ccccc4c3=O)C(=O)N2c2nc(C)c(C)s2)ccc1O` (stereo not given): the inhibition was 3.28%. The same measure for `Cc1nc2nc(NC(=O)c3ccc(F)cc3)[nH]n2c(=O)c1Cc1ccccc1`: -11.2%; for `O=C(NCc1ccccc1F)C1CCN(Cc2cc3ccccc3n2Cc2cccc(Cl)c2)CC1`: 3.66%. For the compound `CC(=O)c1cc(-c2ccc(F)cc2)n(CC(=O)NC(C)c2ccccc2)c1C` (stereo not given), the inhibition was -9.23%. Turning to `Cc1ccccc1NC(=O)Nc1ccc2nc(N3CCN(C)CC3)cc(C)c2c1`, the inhibition was 9.25%.

With `Cn1c(=O)oc2cc(S(=O)(=O)CCC(=O)NCCc3ccccc3)ccc21`, the inhibition is 5.1%. The same measure for `Cc1cccn2c(=O)c(/C=C(\C#N)c3nc4ccccc4s3)c(Oc3ccc(Br)cc3)nc12`: 4.65%; for `COc1ccc(NC(=O)C2CCCN(S(=O)(=O)c3ccc(Cl)cc3)C2)cc1` (stereo not given): 12%; for `Cc1ccccc1C(=O)NC1CC2CCC(C1)N2Cc1ccccc1` (stereo not given): active: 71.7%. Consider `Cc1ccc(Cl)cc1NC(=O)C(NS(=O)(=O)c1cccc2nsnc12)c1ccccc1` (stereo not given), for which the inhibition was -7.36%.

Turning to `Cc1ccc(C)c(N2CCN(c3nccn4nc(-c5ccc(Br)cc5)cc34)CC2)c1`, the inhibition stood at 2.12%. `Cc1cccc(NC(=O)CN2c3ccccc3S(=O)(=O)c3ccccc32)c1C`: the inhibition was -8.09%.
